Results published in a collection of fitness landscapes (doi:10.1016/j.celrep.2020.107928).
In all, about 81,000 sequences were measured (“one-hybrid fitness for binding NBS DNA”: median about -0.1, highest 2% from about 0.36 on). The list shows a part of the results.

B1: Caulobacter ParB omega fusion; a variant is named by its letters at X, in order, B8GW30 (parent)
chain: MESVVVGEPGMSEGRRGLGRGLSALLGEVDAAPAQAPGEQLGGSREAPIEILQRNPDQPRRTFREEDLEDLSNSIREKGVLQPILVRPSPDTAGEYQIVAGERAWRAAQRAGLKTVPIMVRELDDLAVLEIGIIENVQRADLNVLEEALSYKVLMEKFERTQENIAQTIGKSXSHVANXMRLLXLPDEVQSYLVSGELTAXHARAIAAAADPVALAKQIIEGGLSVRETEALARKAPNLSAGKSKGGRPPRVKDTDTQALESDLSSVLGLDVSIDHRGSTGTLTITYATLEQLDDLCNRLTRGI

Variants of: B1
Experiment: one-hybrid fitness for binding NBS DNA (the Noc-binding site; scaled: cognate 1, non-cognate 0); higher = stronger binding
Settings: with NBS DNA site
How it was run: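 In E. coli USO, a HIS3 reporter with its site placed 19 bp from the promoter was used to select Caulobacter ParB variants randomised at four specificity codons. Growth lasted 48 hours at 37°C on histidine-free M9 containing 0.1 mM IPTG and 5 mM 3-AT. Fitness was taken as the log change in variant-to-wild-type read ratio from Illumina sequencing of pre- and post-selection plasmids, rescaled between the non-cognate and cognate sites.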

Row | Variant | one-hybrid fitness for binding NBS DNA
1 | SKTV | ≤ 0.2
2 | KPLG | ≤ 0.2
3 | HVNT | ≤ 0.2
4 | VRTH | ≤ 0.2
5 | IDSK | ≤ 0.2
6 | AMHF | ≤ 0.2
7 | PTIS | ≤ 0.2
8 | AGFF | ≤ 0.2
9 | FTWC | ≤ 0.2
10 | REPF | ≤ 0.2
11 | RINK | ≤ 0.2
12 | PSQV | ≤ 0.2
13 | TVND | ≤ 0.2
14 | LLKW | ≤ 0.2
15 | QKED | ≤ 0.2
16 | SCVF | ≤ 0.2
17 | VHCP | ≤ 0.2
18 | PTQK | ≤ 0.2
19 | EHRT | ≤ 0.2
20 | TCRI | ≤ 0.2
21 | ETHM | ≤ 0.2
22 | PVQG | ≤ 0.2
23 | DHIS | ≤ 0.2
24 | RILT | 0.258

Row | Variant | one-hybrid fitness for binding NBS DNA
25 | QVNF | ≤ 0.2
26 | EPWI | ≤ 0.2
27 | LYLR | ≤ 0.2
28 | NYTC | ≤ 0.2
29 | QVKM | 0.229
30 | IYDF | ≤ 0.2
31 | EPLH | ≤ 0.2
32 | QNQE | ≤ 0.2
33 | NCGW | ≤ 0.2
34 | CVKD | ≤ 0.2
35 | KFGV | ≤ 0.2
36 | PSVL | ≤ 0.2
37 | QSMP | ≤ 0.2
38 | SCPA | ≤ 0.2
39 | TEIF | ≤ 0.2
40 | INDR | ≤ 0.2
41 | SVAA | ≤ 0.2
42 | YPSN | ≤ 0.2
43 | HYRV | ≤ 0.2
44 | CTGP | ≤ 0.2
45 | RCQN | ≤ 0.2
46 | NWLM | ≤ 0.2
47 | MYPG | ≤ 0.2
48 | RIGF | ≤ 0.2

Row | Variant | one-hybrid fitness for binding NBS DNA
49 | MHGR | ≤ 0.2
50 | YFPL | ≤ 0.2
51 | YNPA | ≤ 0.2
52 | RQMR | 0.385
53 | PVKY | ≤ 0.2
54 | QQFV | ≤ 0.2
55 | RANY | ≤ 0.2
56 | GTII | ≤ 0.2
57 | PLDL | ≤ 0.2
58 | LHVR | ≤ 0.2
59 | AHAC | ≤ 0.2
60 | TGSG | ≤ 0.2
61 | SATA | ≤ 0.2
62 | KVGY | ≤ 0.2
63 | WSMG | ≤ 0.2
64 | SCTL | ≤ 0.2
65 | AAIK | ≤ 0.2
66 | QRHQ | 0.431
67 | VAKT | ≤ 0.2
68 | LSMG | ≤ 0.2
69 | IVRG | ≤ 0.2
70 | ACAR | ≤ 0.2
71 | NPRV | ≤ 0.2
72 | QQCV | ≤ 0.2

Row | Variant | one-hybrid fitness for binding NBS DNA
73 | AIST | ≤ 0.2
74 | NRMI | ≤ 0.2
75 | ELFV | ≤ 0.2
76 | RAFH | ≤ 0.2
77 | SWHQ | ≤ 0.2
78 | VFQS | ≤ 0.2
79 | NTNW | ≤ 0.2
80 | CKLV | ≤ 0.2
81 | GLAF | ≤ 0.2
82 | LHMD | ≤ 0.2
83 | NNVS | ≤ 0.2
84 | VKWM | ≤ 0.2
85 | LPTG | ≤ 0.2
86 | PLEM | ≤ 0.2
87 | TSIM | ≤ 0.2
88 | QLEG | ≤ 0.2
89 | PFNC | ≤ 0.2
90 | RHEK | ≤ 0.2
91 | YLET | ≤ 0.2
92 | VRDE | ≤ 0.2
93 | RCLN | ≤ 0.2
94 | AQCV | ≤ 0.2
95 | YLVD | ≤ 0.2
96 | VKHT | ≤ 0.2

Row | Variant | one-hybrid fitness for binding NBS DNA
97 | CRMA | ≤ 0.2
98 | SPSP | ≤ 0.2
99 | LPSV | ≤ 0.2
100 | VIHS | ≤ 0.2
101 | QIWG | ≤ 0.2
102 | YTLS | ≤ 0.2
103 | SDDR | ≤ 0.2
104 | PSEL | ≤ 0.2
105 | KPRK | ≤ 0.2
106 | LVFC | ≤ 0.2
107 | IAKR | 0.221
108 | SIKA | ≤ 0.2
109 | NSAV | ≤ 0.2
110 | PKDT | ≤ 0.2
111 | GRST | ≤ 0.2
112 | TTGY | ≤ 0.2
113 | EPSK | ≤ 0.2
114 | HLHT | ≤ 0.2
115 | TSYT | ≤ 0.2
116 | STHG | ≤ 0.2
117 | EETY | ≤ 0.2
118 | LEPG | ≤ 0.2
119 | HWAF | ≤ 0.2
120 | IVSY | ≤ 0.2

Row | Variant | one-hybrid fitness for binding NBS DNA
121 | GCKW | ≤ 0.2
122 | PSFC | ≤ 0.2
123 | YRMV | ≤ 0.2
124 | TATY | ≤ 0.2
125 | VTYS | ≤ 0.2
126 | FRLT | ≤ 0.2
127 | PNRQ | ≤ 0.2
128 | LRPM | ≤ 0.2
129 | QHMI | ≤ 0.2
130 | HDLT | ≤ 0.2
131 | NFHS | ≤ 0.2
132 | LKWY | ≤ 0.2
133 | QHFY | ≤ 0.2
134 | LFNF | ≤ 0.2
135 | NGTF | ≤ 0.2
136 | RERC | ≤ 0.2
137 | HGVC | ≤ 0.2
138 | RDMK | ≤ 0.2
139 | RFGV | ≤ 0.2
140 | CMTI | ≤ 0.2
141 | EMIC | ≤ 0.2
142 | YEGP | ≤ 0.2
143 | GPLF | ≤ 0.2
144 | PDTC | ≤ 0.2

Row | Variant | one-hybrid fitness for binding NBS DNA
145 | RMNL | ≤ 0.2
146 | CCMW | ≤ 0.2
147 | LRVA | ≤ 0.2
148 | NAAY | ≤ 0.2
149 | RAGF | ≤ 0.2
150 | SAYI | ≤ 0.2
151 | RFVL | ≤ 0.2
152 | GRLL | ≤ 0.2
153 | HRIG | ≤ 0.2
154 | VQCF | ≤ 0.2
155 | YLGL | ≤ 0.2
156 | KSMR | ≤ 0.2
157 | RRIQ | 0.235
158 | PHMT | ≤ 0.2
159 | LYHD | ≤ 0.2
160 | FPHG | ≤ 0.2
161 | DLEP | ≤ 0.2
162 | SSLY | ≤ 0.2
163 | KCGC | ≤ 0.2
164 | SQSS | ≤ 0.2
165 | RAHT | 0.427
166 | KMCT | ≤ 0.2
167 | AFDL | ≤ 0.2
168 | GMYT | ≤ 0.2

Row | Variant | one-hybrid fitness for binding NBS DNA
169 | LDAP | ≤ 0.2
170 | HYAQ | ≤ 0.2
171 | TRIG | ≤ 0.2
172 | VTEW | ≤ 0.2
173 | HRHR | ≤ 0.2
174 | TPAM | ≤ 0.2
175 | IPLS | ≤ 0.2
176 | HSCH | ≤ 0.2
177 | HEKA | ≤ 0.2
178 | ERSC | ≤ 0.2
179 | KTTN | ≤ 0.2
180 | KTNF | ≤ 0.2
181 | FCYE | ≤ 0.2
182 | DTNH | ≤ 0.2
183 | FHIG | ≤ 0.2
184 | TAKT | ≤ 0.2
185 | FSGT | ≤ 0.2
186 | SQVT | ≤ 0.2
187 | LSYL | ≤ 0.2
188 | PMKR | ≤ 0.2
189 | HWER | ≤ 0.2
190 | ISNS | ≤ 0.2
191 | QPTH | ≤ 0.2
192 | VNRE | ≤ 0.2

Row | Variant | one-hybrid fitness for binding NBS DNA
193 | LPRS | ≤ 0.2
194 | LTSY | ≤ 0.2
195 | STCC | ≤ 0.2
196 | QWPM | ≤ 0.2
197 | QCYD | ≤ 0.2
198 | RSKK | ≤ 0.2
199 | FHRW | ≤ 0.2
200 | IPCS | ≤ 0.2
201 | QLYV | ≤ 0.2
202 | LMVC | ≤ 0.2
203 | SCYF | ≤ 0.2
204 | WERT | ≤ 0.2
205 | TVYL | ≤ 0.2
206 | YPGY | ≤ 0.2
207 | VHTR | ≤ 0.2
208 | QHAE | ≤ 0.2
209 | IRSD | ≤ 0.2
210 | TPGP | ≤ 0.2
211 | HCAN | ≤ 0.2
212 | LKSP | ≤ 0.2
213 | YPPK | ≤ 0.2
214 | TTHG | ≤ 0.2
215 | DMKI | ≤ 0.2
216 | VINA | ≤ 0.2

Row | Variant | one-hybrid fitness for binding NBS DNA
217 | HTVA | ≤ 0.2
218 | HNTP | ≤ 0.2
219 | WAST | ≤ 0.2
220 | TQYQ | ≤ 0.2
221 | NQRL | ≤ 0.2
222 | RIGT | 0.403
223 | LPRA | ≤ 0.2
224 | DLRH | ≤ 0.2
225 | YRAY | ≤ 0.2
226 | ATDA | ≤ 0.2
227 | PPDD | ≤ 0.2
228 | SDTV | ≤ 0.2
229 | YLNC | ≤ 0.2
230 | DFAT | ≤ 0.2
231 | TTHM | ≤ 0.2
232 | YVNG | ≤ 0.2
233 | WFQR | ≤ 0.2
234 | GDPY | ≤ 0.2
235 | WGPT | ≤ 0.2
236 | MEAP | ≤ 0.2
237 | VAEF | ≤ 0.2
238 | WTAW | ≤ 0.2
239 | QPRH | ≤ 0.2
240 | LGIR | ≤ 0.2

Row | Variant | one-hybrid fitness for binding NBS DNA
241 | VVHS | ≤ 0.2
242 | PVHC | ≤ 0.2
243 | PKNR | ≤ 0.2
244 | DNMG | ≤ 0.2
245 | QPMR | ≤ 0.2
246 | AVPN | ≤ 0.2
247 | WEVL | ≤ 0.2
248 | MTYF | ≤ 0.2
249 | TGPV | ≤ 0.2
250 | RWCY | ≤ 0.2
251 | RQYF | ≤ 0.2
252 | TGQD | ≤ 0.2
253 | IRNL | ≤ 0.2
254 | FAAC | ≤ 0.2
255 | PANL | ≤ 0.2
256 | LCAG | ≤ 0.2
257 | RFCT | ≤ 0.2
258 | YTHR | ≤ 0.2
259 | LEPT | ≤ 0.2
260 | NTKT | ≤ 0.2
261 | CYQG | ≤ 0.2
262 | NKSL | ≤ 0.2
263 | KYNC | ≤ 0.2
264 | QCPR | 0.37

Row | Variant | one-hybrid fitness for binding NBS DNA
265 | GARC | ≤ 0.2
266 | THCA | ≤ 0.2
267 | AYWS | ≤ 0.2
268 | FLGC | ≤ 0.2
269 | CERR | ≤ 0.2
270 | MCKS | ≤ 0.2
271 | PVNL | ≤ 0.2
272 | GERS | ≤ 0.2
273 | MKRT | ≤ 0.2
274 | HNLR | ≤ 0.2
275 | DMMV | ≤ 0.2
276 | HARL | ≤ 0.2
277 | NGQF | ≤ 0.2
278 | QHQL | ≤ 0.2
279 | PRDY | ≤ 0.2
280 | PGKT | ≤ 0.2
281 | RHGF | ≤ 0.2
282 | PNKY | ≤ 0.2
283 | GPPS | ≤ 0.2
284 | RVDG | ≤ 0.2
285 | ATST | ≤ 0.2
286 | QEMW | ≤ 0.2
287 | KVED | ≤ 0.2
288 | HLIP | ≤ 0.2

Row | Variant | one-hybrid fitness for binding NBS DNA
289 | NKWC | ≤ 0.2
290 | IPNS | ≤ 0.2
291 | QWKV | ≤ 0.2
292 | IKCR | ≤ 0.2
293 | MVGS | ≤ 0.2
294 | AADT | ≤ 0.2
295 | KGPR | ≤ 0.2
296 | VHLG | ≤ 0.2
297 | YHPG | ≤ 0.2
298 | ITRF | ≤ 0.2
299 | ENLG | ≤ 0.2
300 | WDGT | ≤ 0.2
301 | EALA | ≤ 0.2
302 | LIQD | ≤ 0.2
303 | DVVC | ≤ 0.2
304 | HVYT | ≤ 0.2
305 | YPPM | ≤ 0.2
306 | QAIA | ≤ 0.2
